Test results as given in the supplement of paper PMC12217912.
The other results are listed elsewhere or left out. The full chains were built here from the parent and the listed change. Values near 0.05 are background.

B1: TEV protease; numbered along this chain (parent)
chain: MGESLFKGPRDYNPISSSICHLTNESDGHTTSLYGIGFGPFIITNKHLFRRNNGTLVVQSLHGVFKVKDTTTLQQHLVDGRDMIIIRMPKDFPPFPQKLKFREPQREERICLVTTNFQTKSMSSMVSDTSCTFPSGDGIFWKHWIQTKDGQCGSPLVSTRDGFIVGIHSASNFTNTNNYFTSVPKNFMELLTNQEAQQWVSGWRLNADSVLWGGHKVFMVKPEEPFQPVKEATQL

Variants of: B1
Assay: raw area under fraction-flipped curve 0-4 h after induction (AUC4h, not background-subtracted), DNA-recorder readout of cleavage of the substrate (dimensionless); higher = more cleavage of the substrate by the protease variant
Settings: temperature: 34 °C; time window: 0-4 h after rhamnose induction
Protocol: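 In vivo DNA recorder in E. coli TOP10(DE3) ΔrhaA at 34 °C. Each TEVp single-site mutant (parent TEVp 0) is paired with a single-site variant of the 7-mer TEVs (canonical ENLYFQ|S). The substrate sits between flexible linkers in a Bxb1-sfGFP-TEVs-SsrA fusion, so cleavage stabilises Bxb1 and speeds flipping of a recombination array, read by NGS. The value is the raw area under the fraction-flipped curve over 0-4 h after rhamnose induction (AUC4h), with ≥20 reads per time point. It is not background-subtracted; inactive controls average about 0.047.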
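Further: Bxb1 expression induced with 0.2% (w/v) L-rhamnose at OD600 near 0.5, cultures sampled hourly, flipped fraction per protease–substrate barcode pair counted by paired-end Illumina sequencing.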

Variant | area with substrate ENLAFQS | area with substrate ENLCFQS | area with substrate ENLDFQS | area with substrate ENLFFQS | area with substrate ENLHFQS | area with substrate ENLIFQS | area with substrate ENLLFQS | area with substrate ENLNFQS | area with substrate ENLRFQS | area with substrate ENLVFQS | area with substrate ENLWFQS | area with substrate ENLKFQS | area with substrate ENLEFQS | area with substrate ENLPFQS | area with substrate ENLQFQS | area with substrate ENLSFQS | area with substrate ENLTFQS | area with substrate ENLGFQS | area with substrate ENLMFQS
V210W | 0.06 | 0.0709 | 0.0598 | 0.0588 | 0.0591 | 0.0617 | 0.0656 | 0.06 | 0.0653 | 0.0545 | 0.0521 | – | – | – | – | – | – | – | –
V210I | 0.0855 | – | – | 0.0651 | – | – | 0.0501 | – | – | 0.101 | – | 0.079 | – | – | – | – | – | – | –
A207F | 0.059 | – | 0.0675 | 0.073 | 0.0681 | 0.079 | 0.0615 | – | 0.0678 | – | 0.0642 | 0.0729 | 0.063 | 0.0487 | 0.0619 | 0.0658 | 0.0703 | – | –
H47T | – | 0.0524 | 0.0675 | 0.0737 | 0.0597 | – | 0.0567 | 0.0564 | 0.0574 | 0.0949 | 0.0415 | 0.0476 | 0.0462 | 0.0391 | 0.0575 | 0.0414 | – | 0.05 | 0.0605
L33A | – | 0.0676 | 0.0579 | 0.0935 | – | 0.0661 | – | 0.0556 | 0.1 | – | – | 0.0561 | 0.0681 | 0.0623 | – | 0.0711 | – | – | –
F218C | 0.0635 | – | 0.0539 | 0.0874 | 0.0581 | 0.0584 | – | 0.0628 | – | – | – | – | – | 0.081 | 0.0484 | 0.0744 | – | – | –
L211G | 0.0521 | 0.0363 | 0.0651 | – | 0.0604 | – | 0.0686 | – | – | – | 0.0641 | 0.0667 | 0.0458 | – | – | – | 0.0896 | – | –
L211E | 0.0742 | 0.0768 | 0.0654 | 0.0978 | 0.0752 | 0.111 | 0.0803 | 0.0642 | – | 0.0917 | 0.0825 | 0.095 | 0.0643 | 0.0573 | 0.0757 | 0.0697 | – | 0.0652 | –
L235W | 0.0988 | – | – | 0.0925 | 0.0743 | – | 0.0625 | 0.059 | 0.0583 | – | – | 0.0849 | – | – | – | 0.0198 | – | – | –
L235D | 0.0775 | 0.0917 | – | 0.0963 | – | – | – | 0.0512 | – | – | – | – | 0.0891 | – | 0.0847 | – | 0.0805 | – | –
L235V | 0.0675 | 0.075 | 0.0547 | 0.0937 | – | – | 0.0649 | 0.0603 | 0.0632 | – | – | – | – | – | 0.0673 | – | – | – | 0.0791
F226P | 0.0862 | – | 0.0644 | – | 0.0771 | 0.0868 | – | 0.0389 | 0.0413 | 0.0869 | – | – | – | – | – | 0.0718 | – | – | –
F226L | 0.067 | – | 0.0652 | 0.0816 | – | 0.102 | – | 0.0737 | – | 0.0778 | – | 0.0813 | 0.0896 | 0.0478 | 0.0698 | – | – | 0.0657 | –
D27F | – | 0.0625 | 0.0542 | 0.0776 | 0.0711 | – | 0.0752 | 0.0652 | – | 0.0816 | – | 0.0744 | 0.0542 | 0.0513 | 0.0636 | – | – | – | 0.0702
Q74T | – | 0.0601 | 0.0678 | – | 0.0979 | – | – | – | 0.0603 | 0.0457 | – | 0.0504 | – | – | 0.0615 | 0.0597 | – | – | 0.0573
Q74N | – | 0.0618 | – | 0.0923 | 0.078 | – | – | 0.06 | – | – | – | – | – | – | – | – | – | – | 0.0852
H76Y | – | 0.0618 | 0.0702 | 0.0821 | 0.056 | – | – | 0.0916 | 0.0602 | 0.0676 | 0.0488 | 0.0726 | – | 0.0566 | 0.0529 | – | – | – | –
